This is an account of results in PMC7819943, “Rice protein-binding microarrays: a tool to detect cis-acting elements near promoter regions in rice”.

The list shows a part of the results.

The target of the assay is T1, OsWOX13 (Oryza sativa, UniProt Q5QMM3 1-267).
T1 sequence: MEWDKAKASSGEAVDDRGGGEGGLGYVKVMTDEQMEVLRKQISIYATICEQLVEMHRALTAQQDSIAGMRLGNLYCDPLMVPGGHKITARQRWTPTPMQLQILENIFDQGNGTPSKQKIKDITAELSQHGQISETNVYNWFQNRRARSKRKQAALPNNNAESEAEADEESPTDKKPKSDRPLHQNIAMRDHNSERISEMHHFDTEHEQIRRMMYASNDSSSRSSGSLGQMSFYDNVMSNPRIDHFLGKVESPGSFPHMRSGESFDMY
Briefly: protein-binding microarray (RPBM); PBS, 2% BSA, 51.3 ng/ul salmon testes DNA, 50 uM zinc acetate, 200 nM TF, 25 C, 1 h; high values mean tight binding. The note with it: protein: recombinant; tags: N-terminal polyhistidine and DsRed monomer fusion (pET32a); label: CyDye5-dUTP incorporated in the synthesized complementary strand; 3' TTTTT single-stranded linker to array surface; dsDNA, one strand shown. The essentials:
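Polyhistidine-tagged DsRed fusions of transcription factors, joined at the N-terminus, were expressed in E. coli BL21-CodonPlus and isolated on Ni–NTA. They were incubated at 200 nM for 1 h at 25 °C on a custom Agilent array, double-stranded and BSA-blocked, in PBS with 2% BSA, salmon testes DNA and 50 µM zinc acetate. The binding signal is per-feature fluorescence intensity (arbitrary units) read on an Axon 4000B scanner after washing.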
In the case of “TTTAACAGGCCAAAATCTTCTAGAATACGAATTATGCTACCGGAGTCACCTAGTGCAG”, the binding signal is 6410 fluorescence intensity (a.u.).

On to “GACTCTTCTAATCAAGTGATCAAATGAGCCTAATCCAACTCGGAGTCACCTAGTGCAG”, for which the binding signal is 6630 fluorescence intensity (a.u.).

“TCGGTTCTTAATTGACCCAAGCAAACACTCTCTCTATAGACGGAGTCACCTAGTGCAG”: the binding signal was 12000 fluorescence intensity (a.u.).

Consider “ACCTTCAATTAATTTTGCTTCAGTTTTCATCAGAAAGGCTCGGAGTCACCTAGTGCAG”, for which the binding signal is 25800 fluorescence intensity (a.u.).

Turning to “TATTAGATTACTCTAATTATTGCGCGTGGCTGAGGTAAACCGGAGTCACCTAGTGCAG”, the binding signal is 14000 fluorescence intensity (a.u.).

In the case of “CATCACATAATTTCCTAAATTTCGTAGGATACTATCAAAACGGAGTCACCTAGTGCAG”, the binding signal was 3400 fluorescence intensity (a.u.).

For “CTACTACAATGATTAGATGGTTCTAAACTTCTAATGTAATCGGAGTCACCTAGTGCAG”, the binding signal is 12500 fluorescence intensity (a.u.).

As to “TACAGCCAATTAAACAATTATTGGAGTGTCCATCAGCTATCGGAGTCACCTAGTGCAG”, the binding signal was 20600 fluorescence intensity (a.u.).

Regarding “AACAATCTAGAATTGGATTAGACACATCTTAGTTTCATGACGGAGTCACCTAGTGCAG”, the binding signal was 3270 fluorescence intensity (a.u.).

For “CACTAATACTGTATGATTTAAACATAACACAATGTATGCCCGGAGTCACCTAGTGCAG”, the binding signal was 10900 fluorescence intensity (a.u.).

Regarding “CATGTGCCAATCAAGCCCGAGAACGGAAAACCCGCAGGCGCGGAGTCACCTAGTGCAG”, the binding signal is 10900 fluorescence intensity (a.u.).

“TGCGATTAACTGGACTTGTTCCTGCAGACACACGGGCAGTCGGAGTCACCTAGTGCAG”: the binding signal was 8480 fluorescence intensity (a.u.).

In the case of “ATATGTTAATAAATCTCATTAACATCTATATGAATGTGAGCGGAGTCACCTAGTGCAG”, the binding signal is 3710 fluorescence intensity (a.u.).

For “CCTAAAATTAACCCCAAAATTGTGTTTTAAAATTTTACTTCGGAGTCACCTAGTGCAG”, the binding signal is 4660 fluorescence intensity (a.u.).

For “ATTTTAACTTTAATTTACTCACGTGTACTCTCGAATAATTCGGAGTCACCTAGTGCAG”, the binding signal was 9010 fluorescence intensity (a.u.).

Consider “ACAAATTAGCTATTATATTGGCTATAGATGATTTGGAGTACGGAGTCACCTAGTGCAG”, for which the binding signal was 42300 fluorescence intensity (a.u.).

On to “CCTCAATCATTCCCATCCTCGTTCATCCGTCAGTGGCCCCCGGAGTCACCTAGTGCAG”, for which the binding signal was 18500 fluorescence intensity (a.u.).

As for “CTTCAAATTTGATCCTGCCATACAAGTGACCTCTTTGGTTCGGAGTCACCTAGTGCAG”, the binding signal is 3840 fluorescence intensity (a.u.).

On to “TACATAATAATTATTTCTTGTGCTCTGAGTAACGTTTTAGCGGAGTCACCTAGTGCAG”, for which the binding signal is 9470 fluorescence intensity (a.u.).

Turning to “GACATTAATTCTTTTACTTAATTAAGATCATTGTTTAATACGGAGTCACCTAGTGCAG”, the binding signal is 10400 fluorescence intensity (a.u.).

Consider “CACAATCCAATCACCTCCTCTCTTGTTGCCTCCCAAAACCCGGAGTCACCTAGTGCAG”, for which the binding signal was 6720 fluorescence intensity (a.u.).

Consider “CATGATGAGTGTCTAATAACTAAAACAACCCCTCCAAAATCGGAGTCACCTAGTGCAG”, for which the binding signal was 10200 fluorescence intensity (a.u.).

Turning to “AATGACTGATTAATTAGGCTTAATAAATTCATCTCGCAGTCGGAGTCACCTAGTGCAG”, the binding signal was 59600 fluorescence intensity (a.u.).

With “TCCTTAATTTTGTTTGAACTTTGATTTCTAGTTTATGAAACGGAGTCACCTAGTGCAG”, the binding signal is 15600 fluorescence intensity (a.u.).

As for “TATTCAATTATAGATTTAATAAAACTATGGTGATGTTGTACGGAGTCACCTAGTGCAG”, the binding signal is 17700 fluorescence intensity (a.u.).

Regarding “ATTTCTAATTACATATAATATATATATACTAATTGGAGTACGGAGTCACCTAGTGCAG”, the binding signal was 23300 fluorescence intensity (a.u.).

Regarding “CCTAGATTTGACAGTTGTCAAGAAAGTATCTAAACATCCTCGGAGTCACCTAGTGCAG”, the binding signal was 30400 fluorescence intensity (a.u.).

“GCTGATTGAGGCGGCGGCGGCGATCCGTGCTGCGCGCTGTCGGAGTCACCTAGTGCAG”: the binding signal was 43200 fluorescence intensity (a.u.).

For “TGTGATGTATTTGATTTATGATGTATTTATTTGTGTGTATCGGAGTCACCTAGTGCAG”, the binding signal is 20700 fluorescence intensity (a.u.).

With “GTTCAAGATACAAATTAGATTGGTTAAGGGAGCTAAAGTGCGGAGTCACCTAGTGCAG”, the binding signal is 14200 fluorescence intensity (a.u.).

For “ATAATTTATTTTAGAAATTGTTTAAGATGTTGTATCACAACGGAGTCACCTAGTGCAG”, the binding signal was 9680 fluorescence intensity (a.u.).

In the case of “ATTCAATTCCAATCTATGAACTTTTGTTGTATTAGAAAACCGGAGTCACCTAGTGCAG”, the binding signal is 4620 fluorescence intensity (a.u.).

For the sequence “TGAGATAAAATTGACAAATGTTAAGGAGATATACACTTGGCGGAGTCACCTAGTGCAG”, the binding signal is 27900 fluorescence intensity (a.u.).

“TCCCAGCGCTGATTGTTACCGCGCCGCACAAAATAGGAGACGGAGTCACCTAGTGCAG”: the binding signal was 7900 fluorescence intensity (a.u.).

Take “CATAGATAGATAAAGACAATACTTTTGGAGTAAGTGCCGGCGGAGTCACCTAGTGCAG”: the binding signal is 8240 fluorescence intensity (a.u.).

“AGTTCCAATCAAAGCAATTAATTAACCATTTAATCGCCCCCGGAGTCACCTAGTGCAG”: the binding signal is 47900 fluorescence intensity (a.u.).

As to “AAAATTACAGTCTTATTTAACTAAAATTACATATGTAAATCGGAGTCACCTAGTGCAG”, the binding signal is 5170 fluorescence intensity (a.u.).

“AATCTGGACAAATGATTGTTCACGTTCATCCTTAGATGTTCGGAGTCACCTAGTGCAG”: the binding signal is 5690 fluorescence intensity (a.u.).

Turning to “TGCATCTATCAACCCTGTAAATTTCTGGGTTCTCTACAGACGGAGTCACCTAGTGCAG”, the binding signal is 6400 fluorescence intensity (a.u.).

As to “CTAATATTTAATTAATCATCATTGCGTTAATCGCTCGAGACGGAGTCACCTAGTGCAG”, the binding signal was 19200 fluorescence intensity (a.u.).

Take “ATTCAATTAGGAGCAAGAAATGAGGGAGAGGTTAAATAGACGGAGTCACCTAGTGCAG”: the binding signal was 7070 fluorescence intensity (a.u.).

With “TAGAGAGCTAGTACTGTAATTGGTAAGGTGACACCATGGCCGGAGTCACCTAGTGCAG”, the binding signal is 3200 fluorescence intensity (a.u.).

Consider “CTTTATTCTTCCACGCATGATTGGCTACATGGGCATTGAGCGGAGTCACCTAGTGCAG”, for which the binding signal was 13600 fluorescence intensity (a.u.).

As to “TCGTTCCAACTTCAATCAAACTTTCTATTTTAGCATGAACCGGAGTCACCTAGTGCAG”, the binding signal is 4430 fluorescence intensity (a.u.).

As for “GCCCATAATTTATTTCATTTGGGCTTGAGAATAGCCTTTCCGGAGTCACCTAGTGCAG”, the binding signal is 9380 fluorescence intensity (a.u.).

For “GATAATTTAACACTCCTTTAAATGGGTTTTGATTATTTGACGGAGTCACCTAGTGCAG”, the binding signal was 13500 fluorescence intensity (a.u.).

For the sequence “GTACTAGTAATTTGCTAGGTTAATTTAGGCCCTGTTTCGTCGGAGTCACCTAGTGCAG”, the binding signal is 15400 fluorescence intensity (a.u.).

“AAGGATGAACTTGATTGCGAAGTCCAAGAGCTTAGCAGAACGGAGTCACCTAGTGCAG”: the binding signal was 12000 fluorescence intensity (a.u.).

For “GACAAAATTGAGATTACTCTCATGTTGACGAGAGAAACACCGGAGTCACCTAGTGCAG”, the binding signal is 8540 fluorescence intensity (a.u.).

On to “TGTTTGATTATGTTCAATCATTGCAAATCATGTCATCTGTCGGAGTCACCTAGTGCAG”, for which the binding signal is 45900 fluorescence intensity (a.u.).

Turning to “ACCTACATATCACTAAGTAATCAACTGTATTAGTGACTTACGGAGTCACCTAGTGCAG”, the binding signal is 4420 fluorescence intensity (a.u.).

Take “GTTTATGTTAGTGCTAGTGATTAGTACTTAAACATTCAGACGGAGTCACCTAGTGCAG”: the binding signal was 4010 fluorescence intensity (a.u.).

As for “TGGTGAAATTTGTATTTTAATTAATTACATAATGTAAATCCGGAGTCACCTAGTGCAG”, the binding signal is 22400 fluorescence intensity (a.u.).

In the case of “TGTTGTTGATTAATAACATAAATCTAGCTTGCCATATGTGCGGAGTCACCTAGTGCAG”, the binding signal is 33100 fluorescence intensity (a.u.).
